Some of the results follow. These are noisy estimates, calculated here from bound and input reads.
Each sequence was assayed against T1, Pho4 (S. cerevisiae) (UniProt P07270) (assay: relative binding free energy (BET-seq); higher = weaker binding). Conditions: reference: library average.
T1 sequence: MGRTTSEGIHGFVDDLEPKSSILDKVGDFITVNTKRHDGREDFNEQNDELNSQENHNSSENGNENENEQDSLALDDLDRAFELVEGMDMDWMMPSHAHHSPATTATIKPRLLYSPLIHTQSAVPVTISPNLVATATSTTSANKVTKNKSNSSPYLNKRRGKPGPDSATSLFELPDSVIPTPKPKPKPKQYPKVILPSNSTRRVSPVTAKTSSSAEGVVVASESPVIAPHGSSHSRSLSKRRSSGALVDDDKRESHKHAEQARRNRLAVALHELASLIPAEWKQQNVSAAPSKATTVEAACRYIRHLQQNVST

Sequence	relative binding free energy
CGTGGCACGTGGTAGC	-0.23 kcal/mol
TTACTCACGTGATGAT	0.44 kcal/mol
ACTTGCACGTGTAATG	0.07 kcal/mol
GGACGCACGTGAGTTG	0.06 kcal/mol
AATAGCACGTGGGGTG	-0.27 kcal/mol
TGTGTCACGTGATGCG	0.14 kcal/mol
TTAAACACGTGGGTAA	-0.22 kcal/mol
TTCAACACGTGTAGTG	0.02 kcal/mol
GCGTACACGTGTGTTA	0.01 kcal/mol
GCTTGCACGTGAGTTA	0.25 kcal/mol
GGGGGCACGTGTTCCT	-0.09 kcal/mol
GGTTTCACGTGAATTT	0.44 kcal/mol
CTGGGCACGTGAGAGC	0.1 kcal/mol
TATGGCACGTGAACGT	-0.05 kcal/mol
CGGGACACGTGGATGG	-0.07 kcal/mol
GCGATCACGTGGATGT	0.29 kcal/mol
GTGATCACGTGGAATT	0.41 kcal/mol
TTTTGCACGTGGAAGA	0.17 kcal/mol
GGTAGCACGTGTGGAG	0.03 kcal/mol
TGGCACACGTGTAGTA	0.05 kcal/mol
AGGGGCACGTGAGCCG	0.02 kcal/mol
TGCTGCACGTGGGTGG	-0.15 kcal/mol
GTGCGCACGTGATTGG	0.02 kcal/mol
TGCTTCACGTGTTAAA	0.32 kcal/mol
GGCAGCACGTGCGTGG	-0.09 kcal/mol
TAGGGCACGTGGGTAC	-0.27 kcal/mol

Sequence	relative binding free energy
AGCGCCACGTGTTGGT	-0.01 kcal/mol
GGGGCCACGTGTGAAG	0.17 kcal/mol
CTAGGCACGTGTGGCT	-0.01 kcal/mol
GTTATCACGTGTCATT	0.16 kcal/mol
CTTATCACGTGGGAGT	0.07 kcal/mol
TAAGTCACGTGGTTTG	0.06 kcal/mol
ATGCGCACGTGTTGTG	-0.21 kcal/mol
GACGTCACGTGGGGAT	0.15 kcal/mol
TTAGACACGTGTGGCC	0.23 kcal/mol
CGGGTCACGTGTGTAA	0.21 kcal/mol
AAAGGCACGTGCGGTG	-0.22 kcal/mol
CTTGTCACGTGATATG	0.05 kcal/mol
GTGTACACGTGGGACG	-0.03 kcal/mol
CATGGCACGTGTGGTT	-0.18 kcal/mol
TGGTGCACGTGGCGGC	-0.08 kcal/mol
TGGGTCACGTGTCCTT	0.04 kcal/mol
TCTAGCACGTGGGGCG	-0.13 kcal/mol
GGTGGCACGTGTGTTA	0.07 kcal/mol
CTTTTCACGTGGGGAT	0.18 kcal/mol
CTAGGCACGTGAGGTT	0.04 kcal/mol
TAGGGCACGTGTCTGG	-0.1 kcal/mol
TTTGTCACGTGGAGTC	0.09 kcal/mol
TGGTGCACGTGGTACT	-0.03 kcal/mol
GAGTTCACGTGTTAGT	0.36 kcal/mol
CATGGCACGTGAGGAA	0.15 kcal/mol
TGTGCCACGTGTGCTT	-0.12 kcal/mol

Sequence	relative binding free energy
TACGACACGTGCGGGT	-0.07 kcal/mol
AGTAGCACGTGTTCTT	-0.12 kcal/mol
GGTAGCACGTGAACGT	0.27 kcal/mol
AATTGCACGTGTGACG	0.03 kcal/mol
ATGTCCACGTGGGATT	0.03 kcal/mol
TTTAGCACGTGCTGCG	-0.06 kcal/mol
AAGGGCACGTGGACGT	-0.24 kcal/mol
TGGCTCACGTGTCGTG	0.1 kcal/mol
GGGTTCACGTGTATGG	0.43 kcal/mol
ACTTGCACGTGGCTTG	0 kcal/mol
TAGTGCACGTGAATAA	0.19 kcal/mol
CGGGTCACGTGGGCAG	-0.01 kcal/mol
GATTTCACGTGGTGTA	0.35 kcal/mol
TAAGACACGTGGGATA	-0.07 kcal/mol
GGTGTCACGTGTGTCC	0.21 kcal/mol
CGTGACACGTGTAGTT	0.02 kcal/mol
TTTAGCACGTGACATA	0.11 kcal/mol
ATATGCACGTGACGGG	0.05 kcal/mol
AGTCTCACGTGGAGGG	0.26 kcal/mol
TATTCCACGTGTTGAA	0.1 kcal/mol
TTGGACACGTGTGATT	0.19 kcal/mol
ATTGGCACGTGTAATA	0 kcal/mol
GGTTACACGTGAGAGT	0.38 kcal/mol
TGGGCCACGTGAGTAA	0.22 kcal/mol
TTAAACACGTGTATTT	0.01 kcal/mol
GGGTTCACGTGGTTGT	0.36 kcal/mol

Sequence	relative binding free energy
GTGTACACGTGTAGTC	0.03 kcal/mol
GCAGTCACGTGGAGGT	-0.06 kcal/mol
TATAGCACGTGATGGG	0.1 kcal/mol
AGTTTCACGTGTTACG	0.28 kcal/mol
TATAGCACGTGATACG	0.07 kcal/mol
CAGTGCACGTGGGTTT	-0.12 kcal/mol
AAGGTCACGTGGCGGG	0.02 kcal/mol
CAGCGCACGTGGGGGT	-0.28 kcal/mol
CTAGGCACGTGTTTAT	-0.25 kcal/mol
TTGTTCACGTGTAGCA	0.38 kcal/mol
AGGGTCACGTGGGAAA	0.04 kcal/mol
TGATGCACGTGGGATG	0.01 kcal/mol
ACGGGCACGTGTTTGG	-0.13 kcal/mol
CTAGACACGTGGTATG	-0.06 kcal/mol
GTGATCACGTGGGGTT	-0.04 kcal/mol
GTCGGCACGTGTAGAG	-0.01 kcal/mol
GTAATCACGTGTGAGT	0.14 kcal/mol
CGGAACACGTGCGGGT	-0.01 kcal/mol
AGGGGCACGTGACGAG	-0.09 kcal/mol
CGTGTCACGTGGTCTG	-0.07 kcal/mol
GATGGCACGTGCGGTA	-0.07 kcal/mol
TATCTCACGTGCTTGG	0.24 kcal/mol
TAGGGCACGTGGTGTC	-0.23 kcal/mol
GGACGCACGTGTGCGG	-0.02 kcal/mol
TTTCGCACGTGCTGGG	-0.1 kcal/mol
GGTCACACGTGATTTG	0.25 kcal/mol

Sequence	relative binding free energy
GCTTTCACGTGTGGAA	0.17 kcal/mol
TAGTACACGTGTCGTT	0 kcal/mol
ATTCGCACGTGTCGGT	-0.02 kcal/mol
TGTCGCACGTGAGTGT	0.05 kcal/mol
ATGGTCACGTGATACT	0.11 kcal/mol
TGTGCCACGTGATGGA	0 kcal/mol
TGTCGCACGTGAGCTT	0.32 kcal/mol
TGTAGCACGTGGTTGG	-0.07 kcal/mol
TCGAGCACGTGTTAGG	-0.2 kcal/mol
GGGAACACGTGTGTGG	0.08 kcal/mol
AAGGCCACGTGGTGGA	-0.11 kcal/mol
TGTATCACGTGTATGA	0.1 kcal/mol
GGGGACACGTGTGTGA	0.06 kcal/mol
GGATGCACGTGATTAG	0.12 kcal/mol
TTAATCACGTGCCGGG	0.17 kcal/mol
GATGACACGTGGTGTG	-0.03 kcal/mol
GGCGGCACGTGACGCG	0.18 kcal/mol
TAGCTCACGTGTGTTA	0.28 kcal/mol
TTCTGCACGTGGCGAT	-0.01 kcal/mol
TTTAACACGTGTCAGG	0.07 kcal/mol
GTTTGCACGTGTGATC	0.18 kcal/mol
GTTATCACGTGCATTT	0.15 kcal/mol
AGTGTCACGTGAAGAG	0.15 kcal/mol
TTTCCCACGTGGGGTG	-0.15 kcal/mol
TAAATCACGTGCAGGG	0.13 kcal/mol
TATAGCACGTGTAGAA	0.1 kcal/mol

Sequence	relative binding free energy
CTGGGCACGTGGTGCG	-0.32 kcal/mol
AGTTGCACGTGGAGTC	0.15 kcal/mol
GGGATCACGTGTTGTT	0.26 kcal/mol
GATTGCACGTGGTAGG	0.07 kcal/mol
GGTGCCACGTGTCGGA	0.02 kcal/mol
ATCTTCACGTGGGAAA	0.29 kcal/mol
TCCAGCACGTGGGGGT	-0.22 kcal/mol
GGTCCCACGTGTGTTT	0.12 kcal/mol
TTAAGCACGTGCGTAT	-0.15 kcal/mol
TGGACCACGTGGTAGT	-0.14 kcal/mol
CTTGGCACGTGATAGT	0.02 kcal/mol
GTTGTCACGTGGTAAC	0.14 kcal/mol
CTTTGCACGTGTTGGT	0.04 kcal/mol
TCGGGCACGTGGACGG	0.02 kcal/mol
GTTCACACGTGGTGGA	0.22 kcal/mol
CAGTTCACGTGAGGTA	0.36 kcal/mol
GGCTCCACGTGAGGGT	0.25 kcal/mol
TTTTACACGTGCTTCT	0.02 kcal/mol
GAGTGCACGTGGTGTT	-0.04 kcal/mol
ATAGGCACGTGCTTAT	-0.06 kcal/mol
TTTAGCACGTGGCTGG	-0.13 kcal/mol
GTGTGCACGTGATGTT	0.19 kcal/mol
GCGGACACGTGGGAAG	-0.02 kcal/mol
AGTGACACGTGTATTG	0 kcal/mol
TTGTGCACGTGAGCAT	0.15 kcal/mol
TTTTGCACGTGGATCG	0.02 kcal/mol

Sequence	relative binding free energy
AAGAGCACGTGGGGCT	-0.22 kcal/mol
TTATTCACGTGCGTCT	0.14 kcal/mol
TTGGTCACGTGATGGA	0.32 kcal/mol
ATTACCACGTGGAGGT	-0.03 kcal/mol
GGATACACGTGGGTGG	0.07 kcal/mol
TAAATCACGTGGTGGG	0.16 kcal/mol
TGCTTCACGTGGTTCG	0.24 kcal/mol
TTTAACACGTGTGGGT	0.11 kcal/mol
GGGTTCACGTGTGTCG	0.4 kcal/mol
CTGACCACGTGGGTGG	-0.2 kcal/mol
ATAGACACGTGTATTA	-0.01 kcal/mol
CTAGGCACGTGAGTTT	0.07 kcal/mol
GGCGTCACGTGTATAG	0.25 kcal/mol
AGGACCACGTGTGTTG	-0.03 kcal/mol
TGTTGCACGTGGAAGA	0.1 kcal/mol
TTAGCCACGTGAGGAT	0.11 kcal/mol
TGGATCACGTGAAGGT	0.37 kcal/mol
GTACTCACGTGGGATG	0.11 kcal/mol
TGTCACACGTGTGAAG	0.18 kcal/mol
TTAGGCACGTGTAATC	0.13 kcal/mol
TGGGTCACGTGCTATA	0.09 kcal/mol
GTCATCACGTGGAGGT	-0.01 kcal/mol
TACAGCACGTGGTGTG	-0.29 kcal/mol
GGTATCACGTGGAGGG	0.11 kcal/mol
TGTGACACGTGATTTT	0.21 kcal/mol
GATGTCACGTGTTACT	0.32 kcal/mol

Sequence	relative binding free energy
TTTTACACGTGTGTTG	0.17 kcal/mol
GGTGCCACGTGGGGCC	-0.21 kcal/mol
TCGTTCACGTGTATGG	0.34 kcal/mol
AAGTGCACGTGGCGGA	0.03 kcal/mol
AGTAGCACGTGATTGT	-0.01 kcal/mol
TGTCGCACGTGGGGGA	-0.2 kcal/mol
GGGTGCACGTGCTGTT	-0.13 kcal/mol
TGCGTCACGTGGGGTT	-0.03 kcal/mol
TCGTGCACGTGAGATT	0.18 kcal/mol
AAGTACACGTGACTGT	0.38 kcal/mol
TTATGCACGTGAGTGG	0.15 kcal/mol
TATATCACGTGCGTAT	0.05 kcal/mol
GTAGGCACGTGTGGGC	0.13 kcal/mol
ACATTCACGTGGTGGT	0.16 kcal/mol
AAAGTCACGTGGTTAT	-0.04 kcal/mol
TATGTCACGTGGAGGG	0.09 kcal/mol
AATTACACGTGATATT	0.09 kcal/mol
AGCTGCACGTGTATTT	0.09 kcal/mol
TTACACACGTGTGTGG	0.02 kcal/mol
GATGTCACGTGGTGAA	0.21 kcal/mol
GTGCTCACGTGTTGAT	0.31 kcal/mol
TTCAGCACGTGTCGTG	-0.06 kcal/mol
AGGTTCACGTGGGGAC	0.11 kcal/mol
TGTCTCACGTGAAGGC	0.42 kcal/mol
TTGGGCACGTGGGACG	-0.2 kcal/mol
AACTGCACGTGATGTT	0.23 kcal/mol

Sequence	relative binding free energy
AGCAGCACGTGGAGGT	-0.14 kcal/mol
AGGGTCACGTGATTTG	0.31 kcal/mol
TGAGTCACGTGCATTT	0.07 kcal/mol
GTGCACACGTGGGCGG	-0.18 kcal/mol
AATTGCACGTGAGTGG	0.29 kcal/mol
CGGTTCACGTGATCGG	0.28 kcal/mol
CTTTGCACGTGTGTGC	0.06 kcal/mol
AGGAACACGTGGTTGA	-0.08 kcal/mol
ACGTGCACGTGGAGAG	-0.13 kcal/mol
TTGGACACGTGGTCAA	0.05 kcal/mol
TTCATCACGTGAAAGG	0.32 kcal/mol
CGCGTCACGTGGGTTT	-0.01 kcal/mol
TCTGGCACGTGGTTTT	-0.09 kcal/mol
TTAGTCACGTGGGGGC	-0.04 kcal/mol
CTTAGCACGTGTTGGA	-0.1 kcal/mol
GTCAGCACGTGTGAGT	0.06 kcal/mol
TAGGACACGTGGGGAG	0 kcal/mol
CGGGTCACGTGTAGGA	0.19 kcal/mol
GACGGCACGTGTGTTT	0.12 kcal/mol
GTTAACACGTGGCAGG	0.04 kcal/mol
GGTGCCACGTGCGGAG	0.01 kcal/mol
GTACACACGTGTTGTT	-0.03 kcal/mol

— the BET-seq Pho4 binding data (Le et al. 2018)
